Measurements published in PubChem BioAssay AID493208 (National Center for Advancing Translational Sciences (NCATS), 2011).
Screen size: about 44,000 compounds; about 340 (0.77%) were called active. Roughly 5% stayed inconclusive and do not appear here. Calls follow the shape of the dose curve; as a rule, active = well fitted inhibition curve with a large enough effect; inconclusive = small, poorly fitted or top-dose-only effect; inactive = flat fitted curve, though single readings scatter. This is one part of the list.

Experiment: Acumen qHTS Assay for Inhibitors of the mTORC1 Signaling Pathway in MEF (Tsc2-/-, p53-/-) Cells: Sytravon;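 also: plate controls were DMSO for no effect and rapamycin for full effect; nearly all actives have a fitted effect of over 50% in size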
Conditions: phospho-rpS6 immunofluorescence/PI, 24 h; series mostly up to 38.3 µM; activity change, negative = inhibition: at the top concentration
Summary of the method: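 Read-out: phospho-S6 Alexa-488 intensity over PI intensity per well, scored as % active cells using thresholds from rapamycin (7.5 nM) and DMSO controls. Tsc2-/-, p53-/- MEFs exposed to compound for 24 h; PI cell count recorded as viability.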

Activity change, negative = inhibition, inactive:
CCSc1nc2n(n1)C(c1ccc(CC)cc1)C(C(=O)Nc1ccccc1OC)=C(C)N2 (stereo not drawn) -0.14%
Cc1c(Cl)cccc1-n1c(CCC(=O)O)ccc1-c1cccs1 3.12%
CCc1cccc(NC(=O)CN2C(=O)CCc3cc(S(=O)(=O)N4CCOCC4)ccc32)c1 3.76%
Cc1ccc2oc(C(=O)Nc3nnc(CC(C)C)s3)cc(=O)c2c1 1.04%
CCN(CC)c1cc(C)nc2nc(-c3ccc(C)cc3)nn12 -0.734%
Cc1ccc(CN2CCSc3ccc(C(=O)Nc4ccc(F)cc4F)cc32)cc1 3.79%
COc1ccc(N2CCN(C(=O)c3cc4c(=O)n(Cc5ccccc5)ccc4nc3C)CC2)cc1 -7.26%
COC(=O)c1nnn(CC(=O)NC(=O)Nc2ccccc2F)c1C(=O)OC -12%
Cc1noc(NS(=O)(=O)c2ccc(NC(=O)c3ccc(Br)cc3)cc2)c1C -0.356%
Cc1c(Cl)cccc1NC(=O)c1ccc2nc(C(C)C)oc2c1 -0.419%
CCc1ccccc1Nc1nn2c(=O)c3ccc(C(=O)Nc4ccc(OC)cc4)cc3nc2s1 -9.53%
O=C(CSc1nc2ccccc2nc1Cc1ccccc1)N1CCN(c2ccccc2)CC1 1.02%
Cc1cccc(NC(=O)NCCOCCn2c(=O)oc3ccccc32)c1C 2.6%
CC(=O)Nc1cc(-c2ccccc2)nn1Cc1cccc(Cl)c1 6.64%
COc1ccc(CCC(=O)NCc2nc3cccnc3n2Cc2ccccc2)cc1 -2.39%
CC1Cc2cc(S(=O)(=O)CCC(=O)Nc3ccc(Cl)cc3F)ccc2N1C(=O)C1CC1 (stereo not drawn) -15.9%
CC(C)Oc1ccc(C(=O)Nc2ccc(-c3nc4ccccc4s3)cc2)cc1 -10.5%
Cc1ccccc1Cn1c(CN2CCN(c3cc(Cl)ccc3C)CC2)nc2c1c(=O)[nH]c(=O)n2C 0.19%
COc1ccccc1C(=O)Nc1cc(-c2ccc(C)cc2)no1 1.57%
COc1ccc(CCNC(=O)CCc2c(C)c3cc4c(C)coc4cc3oc2=O)cc1 0.0842%
Cc1ccc(Cl)cc1NC(=O)CCCN1C(=O)CCn2nc(-c3cn(C)c4ccccc34)cc21 -0.0999%
CCOc1ccc(CCNC(=O)CCn2c(=O)c3cccn3c3cccnc32)cc1 3.52%
COc1ccc(C)cc1S(=O)(=O)NCC(c1ccc(N(C)C)cc1)N1CCc2ccccc21 (stereo not drawn) 0%
COc1ccc(N2CCN(C(=O)c3cc4cc5ccc(Cl)cc5nc4o3)CC2)cc1 -0.101%
O=C(O)c1ccc(N2C(=O)c3[nH]nc(-c4ccccc4)c3C2c2cccc(F)c2)cc1 (stereo not drawn) -1.12%
CCC(=O)Nc1ccccc1-c1nc2ccccc2n(C(C)C(=O)Nc2ccc(OC)cc2)c1=O (stereo not drawn) -10.7%
CN(c1ccccc1)c1ncnc2c1cnn2C -20.7%
Cc1ccc(NC(=O)Cn2c(=O)oc3cc(S(=O)(=O)N4CCC(C)CC4)ccc32)cc1Cl -28.6%
Cc1cc(NC(=O)N2CCC(CN3CCOCC3)CC2)ccc1Br -6.76%
COc1cccc(C2C(=O)N(C3CCCCC3)CC(=O)N2Cc2ccc(Cl)cc2)c1 (stereo not drawn) 2.28%
CCNc1nc(Oc2ccc(=O)n(-c3ccccc3)n2)nc(N(C)C)n1 -0.339%
CCc1ccc(C2C(C(=O)Nc3ccc(Cl)cc3)=C(C)Nc3ncnn32)cc1 (stereo not drawn) 1.72%
COc1cccc(-c2nc3c(c(C)nn3-c3ccccc3)c3cc(OC)c(OC)cc23)c1 2.49%
Cc1ccc2c(c1)C(=O)OC(C(=O)Nc1ncc(Cc3ccccc3)s1)C2 (stereo not drawn) 5.4%
CC1CCCCN1C(=O)CSc1n[nH]c(-c2ccccc2)n1 (stereo not drawn) -6.68%
CC(=O)c1cccc(-n2c(=O)c3c4c(sc3n(CC(=O)c3ccc(Cl)cc3)c2=O)CN(C(C)=O)CC4)c1 -8.61%
CCOc1cc(C(=O)Nc2ccc(-c3nc4cc(Cl)ccc4o3)cc2)cc(OCC)c1OCC 1.59%
O=C(Nc1cccc(Cl)c1)c1cc(-c2ccccc2)on1 -0.64%
O=c1[nH]c(C2CCCN(S(=O)(=O)c3ccccc3Cl)C2)nc2c1nnn2Cc1ccc(OC(F)(F)F)cc1 (stereo not drawn) -1.86%
COc1ccc(CNC(=O)CCCc2nnc3n(CCC(C)C)c(=O)c4sccc4n23)cc1 -2.04%
Cn1cc(C(=O)NCCc2ccc(Cl)cc2)c(=O)c2cc(S(=O)(=O)N3CCOCC3)ccc21 -4.46%
Cc1ccc(CCNC(=O)C2CC(=O)N(CCc3ccccc3)C2)cc1 (stereo not drawn) 6.45%
CCc1nn(CCCC(=O)N2CCN(c3ccc(OC)cc3)CC2)c(=O)c2cc3occc3n12 -2.8%
COc1ccc(CCNC(=O)c2ccc3c(c2)c(C)c(C)n3Cc2ccccc2)c(OC)c1OC -10.1%
COc1ccc(NC(=O)C2CCC(CNS(=O)(=O)c3ccc4c(c3)C(C)(C)C(=O)N4C)CC2)cc1 (stereo not drawn) -14.1%
Cc1cccc(N2CCN(C(=O)Cn3ncc4c3-c3ccccc3OC4)CC2)c1C -7.67%
CCOc1ccc(Nc2ncnc3c2nc2n3CCCCC2)cc1 0.67%
O=C(Nc1nnc(S(=O)(=O)N2CCCCCC2)s1)c1cccc(Br)c1 9.4%
N#Cc1ccccc1Cn1c(SCC(=O)Nc2ccc(F)cc2)nc2ccccc21 -2.09%
O=C(COc1ccccc1)Nc1ccc2nc(SCC(=O)N3CCc4ccccc43)sc2c1 -6.67%
CCOc1ccc(C(=O)Nc2onc3c2CCCC3)cc1 2.19%
Cn1cnc(S(=O)(=O)N2CCC(C(=O)Nc3ccc(C#N)cc3)CC2)c1 0%
Clc1cccc(N2CCN(c3c4c(nc5nncn35)CCC4)CC2)c1 -21.4%
CC(=O)c1ccc(NC(=O)c2nc(-c3ccccc3)n(-c3ccccc3Cl)n2)cc1 1.03%
COc1ccc(CNCCCSc2nnnn2C)c(OC)c1 0.915%
CCc1nnc(SCc2ccc(F)cc2Cl)c2cc3sc(C)cc3n12 -7.48%
COc1cccc(CNC(=O)CCn2c(=O)c3cccn3c3cccnc32)c1OC 0.395%
CCOC(=O)c1ccccc1NC(=O)c1ccc2c(Cl)c3c(nc2c1)CCC3 0.187%
Cc1nn(CC(=O)NCC(C)c2ccccc2)c(=O)c2cc3ccccc3n12 (stereo not drawn) 1.14%
COc1cc2oc(=O)c(CC(=O)NCc3ccc(OC)c(OC)c3)c(C)c2cc1Cl -1.85%
Cc1ccc(-c2noc(-c3ccc(N4CCCCC4C)c([N+](=O)[O-])c3)n2)cc1 (stereo not drawn) -7.53%
CCCCn1c(=O)c2oc3ccccc3c2n(Cc2cccc(C)c2)c1=O 3.01%
Cc1ccccc1NC(=O)CSc1cn(CC(=O)N2CCCC2)c2ccccc12 4.44%
